The campaign covered roughly 39,000 compounds. About 220 (0.56%) showed activity. Some of the results follow.
System: Escherichia coli K-12 BW25113
Assay: relative growth (OD600 normalised to plate interquartile mean) (fraction); higher = less growth inhibition, active = 0.2 or less
Settings: 50 µM; LB; incubation time: overnight (16-24 h)
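Further: static incubation at 37 °C against the wild-type strain, values averaged over two biological replicates.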

| Compound | relative growth |
| --- | --- |
| C[C@@H]1CN([C@@H](C)CO)C(=O)c2cc(NC(=O)Cc3ccccc3)ccc2O[C@@H](C)CCCCO[C@H]1CN(C)CC1CCCCC1 | inactive: 0.978 |
| CCNC(=O)[C@H]1[C@H](CO)[C@H]2Cn3c(ccc(-c4ccccc4OC)c3=O)[C@H]2N1S(C)(=O)=O | inactive: 1.03 |
| O=C(O)CCC(=O)O.O=C(OC1CN2CCC1CC2)N1CCc2ccccc2C1c1ccccc1 (configuration not stated) | inactive: 1.02 |
| CN1C(=O)c2cc(NC(=O)c3ccno3)ccc2OC[C@H]2O[C@@H](CC(=O)NC3Cc4ccccc4C3)CC[C@@H]21 | inactive: 1 |
| CCCNC(=O)N1C[C@@H](O)COC[C@@H]2O[C@H](CC(=O)NCCCN3CCOCC3)CC[C@H]21 | inactive: 0.987 |
| C[C@H]1CN([C@@H](C)CO)C(=O)Cc2cc(NC(=O)C3CCCCC3)ccc2O[C@@H]1CN(C)S(C)(=O)=O | inactive: 0.992 |
| CO[C@H]1CN(C)C(=O)c2cc(NC(=O)CC(F)(F)F)ccc2OC[C@H](C)N(C(=O)C2CCOCC2)C[C@H]1C | inactive: 0.99 |
| CCS(=O)(=O)N1CC[C@@H](O)[C@@H]1Cc1cnn(C)c1 | inactive: 0.987 |
| CO[C@H]1O[C@H](CO)[C@@H](OC(=O)Nc2ccccc2)[C@@H]2OC(=O)[C@@H](Cc3ccc4ccccc4c3)C/C=C/C[C@H](Cc3ccc4ccccc4c3)C(=O)O[C@@H]12 | inactive: 1 |
| COC(=O)CCCCCCC(=O)Nc1ccc([C@H]2O[C@H](CSc3nc(-c4ccccc4)c(-c4ccccc4)o3)C[C@H](c3ccc(NC(=O)CCCCCCC(=O)OC)cc3)O2)cc1 | inactive: 1.01 |
| CCOCC(=O)NS(=O)(=O)c1ccccc1 | inactive: 0.996 |
| C[C@H](CO)N1C[C@H](C)[C@H](CN(C)Cc2ccc(Cl)c(Cl)c2)Oc2ccc(NS(=O)(=O)c3ccc(Cl)cc3)cc2C1=O | inactive: 0.999 |
| CC(C)N1C[C@H](C)[C@@H](CN(C)Cc2ccc(Oc3ccccc3)cc2)Oc2c(NC(=O)c3ccncc3)cccc2C1=O | inactive: 1.03 |
| CO[C@H]1CN(C)C(=O)c2cc(NS(=O)(=O)c3cn(C)cn3)ccc2OC[C@@H](C)N(Cc2cccc(F)c2)C[C@H]1C | inactive: 1 |
| COc1cccc(S(=O)(=O)N(C)C[C@@H]2Oc3cc(C#CCC(C)C)ccc3S(=O)(=O)N([C@@H](C)CO)C[C@@H]2C)c1 | inactive: 1.01 |
| C[C@@H]1CCCCO[C@H](CN(C)C(=O)Nc2ccc(C(F)(F)F)cc2)[C@@H](C)CN([C@@H](C)CO)C(=O)c2cc(NS(=O)(=O)c3cn(C)cn3)ccc2O1 | inactive: 0.931 |
| C[C@@H]1CN([C@H](C)CO)C(=O)c2cc(NC(=O)Nc3ccc(F)cc3)ccc2O[C@@H](C)CCCCO[C@@H]1CN(C)C(=O)CCCN(C)C | inactive: 0.979 |
| CC(C)NC(=O)Nc1ccc2c(c1)C(=O)N([C@H](C)CO)C[C@@H](C)[C@@H](CN(C)Cc1ccc(C(F)(F)F)cc1)OCCCC[C@@H](C)O2 | inactive: 0.976 |
| C[C@H]1CN([C@@H](C)CO)C(=O)c2cc(C3=CCCC3)cnc2O[C@H]1CN(C)C(=O)Nc1ccc(C(F)(F)F)cc1 | inactive: 1.02 |
| Cc1noc(C)c1NC(=O)Nc1ccc2c(c1)C(=O)N([C@@H](C)CO)C[C@@H](C)[C@@H](CN(C)Cc1ccncc1)OCCCC[C@@H](C)O2 | inactive: 1.01 |
| C[C@H](CO)N1C[C@H](C)[C@@H](CN(C)Cc2ccc(Cl)c(Cl)c2)Oc2ccc(NC(=O)CCC(F)(F)F)cc2C1=O | inactive: 0.982 |

| Compound | relative growth |
| --- | --- |
| CO[C@H]1CN(C)C(=O)c2cc(NC(=O)Nc3cccc(Cl)c3)ccc2OC[C@@H](C)N(C(=O)Nc2c(C)noc2C)C[C@H]1C | inactive: 0.99 |
| COc1ccc(S(=O)(=O)N(C)C[C@H]2Oc3ccc(NC(=O)CCN4CCOCC4)cc3C(=O)N([C@H](C)CO)C[C@H]2C)cc1 | inactive: 1 |
| C[C@H]1CN([C@@H](C)CO)C(=O)Cc2cc(NS(C)(=O)=O)ccc2O[C@@H]1CN(C)Cc1ccc(C(=O)O)cc1 | inactive: 0.994 |
| CCOC(=O)[C@H](Cc1c[nH]c2ccccc12)NC(=O)Cn1cc(C(=O)NO)nn1 | inactive: 0.968 |
| COc1ccc2c3c(n(c2c1)C)[C@@H](CO)N(C[C@]13CN(C1)S(=O)(=O)c1cn(cn1)C)C(=O)Nc1ccc(cc1)F | inactive: 0.998 |
| Cc1noc(C)c1S(=O)(=O)N(C)C[C@H]1Oc2ccc(NS(=O)(=O)c3ccc(F)cc3)cc2C(=O)N([C@H](C)CO)C[C@H]1C | inactive: 0.973 |
| C[C@H](CO)N1C[C@H](C)[C@H](CN(C)Cc2ccc(-c3ccccc3)cc2)Oc2ccc(NS(=O)(=O)c3ccccc3)cc2C1=O | inactive: 0.985 |
| C[C@@H]1CCCCO[C@@H](CN(C)Cc2ccc(C(F)(F)F)cc2)[C@@H](C)CN([C@@H](C)CO)C(=O)c2cc(NC(=O)Nc3ccc(F)cc3)ccc2O1 | inactive: 1.02 |
| CC(C)(CO)[C@@H](O)C(=O)NCCCO | inactive: 1.01 |
| COC(=O)c1c(N)c(C#N)c2n1CCC2 | inactive: 0.983 |
| Cc1nc(C2C(=N)N([C@H]3CS(=O)(=O)C[C@@H]3O)CC2=O)sc1C (some centres not stated) | inactive: 1.01 |
| C[C@H](CO)N1C[C@H](C)[C@H](CN(C)C(=O)Nc2cccc(Cl)c2Cl)OCc2ccccc2-c2ccccc2C1=O | inactive: 0.995 |
| C[C@@H](O)[C@@H](O)[C@@H](O)C/C=N/NC(=O)CCCCC(=O)NO | inactive: 0.96 |
| C[C@@H]1CCCCO[C@@H](CN(C)Cc2ccccc2)[C@@H](C)CN([C@@H](C)CO)C(=O)c2cc(NC(=O)Cc3ccccc3)ccc2O1 | inactive: 1.01 |
| C[C@H]1NC(=O)N[C@@H]1CCCCC(=O)O | inactive: 0.914 |
| CCOC(=O)CCc1n[nH]c(=O)[nH]c1=O | inactive: 1.01 |
| C[C@@H]1CN([C@@H](C)CO)C(=O)c2cc(NC(=O)NC3CCCCC3)ccc2O[C@@H](C)CCCCO[C@H]1CN(C)S(=O)(=O)c1ccccc1 | inactive: 1.03 |
| C=CC[C@@H](CC(=O)N[C@H](CO)Cc1ccccc1)C(=O)NCCOC(=O)[C@@H](CC=C)CC(=O)OC(C)(C)C | inactive: 0.978 |
| C[C@@H]1CN([C@@H](C)CO)S(=O)(=O)c2ccc(C#CC(C)(C)O)cc2O[C@H]1CN(C)Cc1ccncc1 | inactive: 0.997 |
| CO[C@H]1CN(C)C(=O)c2ccc(NC(=O)Nc3ccc(Cl)cc3)cc2OC[C@@H](C)N(C(=O)Nc2c(C)noc2C)C[C@@H]1C | inactive: 0.968 |
| CC(=O)c1ccc2c(c1)N(CCCN(C)C)c1ccccc1S2.O=C(O)C=CC(=O)O | inactive: 0.983 |

| Compound | relative growth |
| --- | --- |
| Cc1noc(C)c1NC(=O)N(C)C[C@@H]1OCCCC[C@@H](C)Oc2ccc(NS(=O)(=O)c3ccc(Cl)cc3)cc2C(=O)N([C@H](C)CO)C[C@H]1C | inactive: 1.03 |
| O=C(C[C@@H]1CC[C@H]2NC[C@H](O)COC[C@@H]2O1)NCCN1CCCC1 | inactive: 1.01 |
| C=CC1CN2CCC1CC2C(O)c1ccnc2ccc(OC)cc12.Cl (configuration not stated) | inactive: 1.07 |
| CC(=O)N1[C@@H]2c3ccc(-c4ccccc4)c(=O)n3C[C@H]1[C@H](CO)[C@H]2C(=O)NCCCN1CCOCC1 | inactive: 0.967 |
| C[C@@H]1CN([C@H](C)CO)C(=O)c2cccc(NS(=O)(=O)c3cn(C)cn3)c2O[C@@H]1CN(C)C(=O)Nc1ccc2c(c1)OCO2 | inactive: 0.993 |
| COc1ccc(NC(=O)N(C)C[C@@H]2OCCCC[C@@H](C)Oc3ccc(NC(=O)Nc4ccccc4)cc3C(=O)N([C@H](C)CO)C[C@@H]2C)cc1 | inactive: 1.01 |
| COc1cc(/C=C(\C#N)C(=O)Nc2nnc(C(F)(F)F)s2)ccc1OCc1ccc(C(F)(F)F)cc1C(F)(F)F | inactive: 0.948 |
| CC(C)[C@@H](N)c1nc2c([nH]1)CCCC2 | inactive: 1.02 |
| CC(C)NC(=O)Nc1cccc2c1O[C@H](CN(C)C(=O)NC1CCCCC1)[C@H](C)CN([C@H](C)CO)C2=O | inactive: 0.996 |
| Nc1nnc(SCC(=O)N2CCOCC2)[nH]1 | inactive: 0.975 |
| COc1ccc(NC(=O)N(C)C[C@H]2Oc3c(NS(C)(=O)=O)cccc3C(=O)N([C@H](C)CO)C[C@H]2C)cc1 | inactive: 0.985 |
| C[C@@H]1CCCCO[C@H](CN(C)C(=O)NC2CCCCC2)[C@H](C)CN([C@@H](C)CO)C(=O)c2cc(NC(=O)Nc3cccc4ccccc34)ccc2O1 | inactive: 0.996 |
| C[C@H]1CCCN(C(=O)CCNS(=O)(=O)c2ccc3c(c2)c(=O)n(C)c(=O)n3C)C1 | inactive: 1.01 |
| COc1ccc(NC(=O)N(C)C[C@@H]2Oc3ncc(C#C[C@@H](C)O)cc3C(=O)N([C@H](C)CO)C[C@H]2C)cc1 | inactive: 0.986 |
| O=C(N[C@@H]1CC[C@H](CC(=O)N2CCOCC2)O[C@H]1CO)c1ccccn1 | inactive: 1.02 |
| C[C@@H]1CN([C@H](C)CO)C(=O)c2cc(NC(=O)Nc3ccccc3)ccc2O[C@@H](C)CCCCO[C@@H]1CN(C)C(=O)c1ccccc1 | inactive: 0.998 |
| C[C@H](CO)N1C[C@H](C)[C@H](CN(C)Cc2ccc3c(c2)OCO3)Oc2c(NC(=O)Nc3cccc4ccccc34)cccc2C1=O | inactive: 1.01 |
| C[C@@H]1CCCCO[C@H](CN(C)C(=O)Nc2cccc3ccccc23)[C@@H](C)CN([C@@H](C)CO)C(=O)c2cc(NC(=O)Cc3ccccc3)ccc2O1 | inactive: 1 |
| C[C@@H]1CN([C@@H](C)CO)C(=O)c2cc(NC(=O)Nc3ccc(F)cc3)ccc2O[C@@H]1CN(C)C(=O)Nc1cccc2ccccc12 | inactive: 1.03 |
| CCOC(=O)c1ccc(OCCN2C[C@H](O)[C@@H](O)[C@H](O)[C@H]2CO)cc1 | inactive: 0.979 |
